Where a SMILES comes first, the peptide text is derived from it. [ ]: non-standard residue; d: D form. Phe(3,4-(OMe)2) = COc1ccc(C[C@H](N)C(=O)O)cc1OC; Phe(3,4-F2) = N[C@@H](Cc1ccc(F)c(F)c1)C(=O)O; Ala(4-thiazolyl) = N[C@@H](Cc1cscn1)C(=O)O; Phe(4-NH2) = Nc1ccc(C[C@H](N)C(=O)O)cc1; Met(O2) = CS(=O)(=O)CC[C@H](N)C(=O)O; Ala(cPr) = N[C@@H](CC1CC1)C(=O)O; Hyp = O=C(O)[C@@H]1C[C@@H](O)CN1; Cha = N[C@@H](CC1CCCCC1)C(=O)O; 4Amb = NCc1ccc(C(=O)O)cc1; β3hS = N[C@@H](CO)CC(=O)O; Orn = NCCC[C@H](N)C(=O)O; βAla = NCCC(=O)O
Target: ACE2 and SARS-CoV-2 RBD interaction (Homo sapiens, UniProt Q9BYF1)
Assay: BLI binding competition of the SARS-CoV-2 RBD-ACE2 interaction
Details: ACE2 100 nM mixed with peptide at 5-fold or 50-fold excess (500 or 5000 nM)

Row | Compound | inhibition of binding of ACE2 to immobilized RBD
1 | CS(=O)(=O)CC[C@H](NC(=O)[C@H](Cc1ccc(F)c(F)c1)NC(=O)[C@H](CCCN)NC(=O)[C@@H](N)CC1CC1)C(=O)N1C[C@H](O)C[C@H]1C(=O)N[C@@H](Cc1cscn1)C(=O)N1CCC[C@@H]1C(=O)N[C@@H](CCC(N)=O)C(=O)N[C@@H](Cc1ccc(F)c(F)c1)C(=O)N[C@@H](CC1CCCCC1)C(=O)N[C@@H](CC1CCCCC1)C(=O)NCCC(=O)N[C@@H](CCCCN)C(N)=O [ABP N6] (H-[Ala(cPr)][Orn][Phe(3,4-F2)][Met(O2)][Hyp][Ala(4-thiazolyl)][dP]Q[Phe(3,4-F2)][Cha][Cha][βAla]K-NH2) | no direct inhibition
2 | CS(=O)(=O)CC[C@H](NC(=O)[C@H](CC1CCCCC1)NC(=O)[C@H](Cc1cscn1)NC(=O)C[C@H](CO)NC(=O)[C@H](CCCN)NC(=O)[C@H](CCC(N)=O)NC(=O)[C@H](CCCN)NC(=O)[C@H](Cc1ccc(F)c(F)c1)NC(=O)[C@H](Cc1cscn1)NC(=O)[C@@H](N)CC1CC1)C(=O)NCC(=O)N[C@@H](Cc1ccc(N)cc1)C(=O)N[C@@H](CCCCN)C(N)=O [ABP N1] (H-[Ala(cPr)][Ala(4-thiazolyl)][Phe(3,4-F2)][Orn]Q[Orn][β3hS][Ala(4-thiazolyl)][Cha][Met(O2)]G[Phe(4-NH2)]K-NH2) | does not interfere
3 | COc1ccc(C[C@H](NC(=O)[C@H](Cc2ccc(F)c(F)c2)NC(=O)[C@@H]2C[C@@H](O)CN2C(=O)[C@H]2CCCN2C(=O)[C@H]2CCCN2C(=O)CNC(=O)[C@H](CC2CC2)NC(=O)[C@H](Cc2cscn2)NC(=O)[C@@H](N)CC2CC2)C(=O)N[C@@H](Cc2cscn2)C(=O)NCCC(=O)NCc2ccc(C(=O)N[C@@H](CCCCN)C(N)=O)cc2)cc1OC [ABP N4] (H-[Ala(cPr)][Ala(4-thiazolyl)][Ala(cPr)]G[dP][dP][Hyp][Phe(3,4-F2)][Phe(3,4-(OMe)2)][Ala(4-thiazolyl)][βAla][4Amb]K-NH2) | no direct inhibition

— paper PMC9814530, “Rapid de novo discovery of peptidomimetic affinity reagents for human angiotensin converting enzyme 2” (Communications Chemistry, 2022)
